Results on 47 molecules are retold here after PubChem BioAssay AID1963576 (National Center for Advancing Translational Sciences (NCATS), 2024).

Out of some 46,000 compounds screened, about 60 (0.1%) were called active. Another 3% or so got no clear call; they are omitted. Calls come from the whole dose curve; as a rule, active = well fitted inhibition curve with a large enough effect; inconclusive = small, poorly fitted or top-dose-only effect; inactive = no such curve, though single readings can be large or run the other way. The list shows a part of the results.

A short description of the assay: Primary qHTS assay for Inhibitors of ovarian cancer metastasis using an organotypic tumor microenvironment (TME) model.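 For activity change, negative = inhibition: plate controls were DMSO wells for no effect and tomatine positive control wells for full effect.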 Note: nearly all actives have a fitted effect of over 65% in size. Conditions: SKOV3ip1-GFP adhesion/invasion on 3D omental model, fluorescence; series mostly up to 45.8 µM; activity change, negative = inhibition: at the top concentration. The method in brief:
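Adhesion/invasion was scored as fixed GFP-labeled SKOV3ip1 cell counts (488/509 nm), normalized to DMSO and tomatine controls. Cancer cells in serum-free medium, with four compound doses (0.36-46 umol/L), sat 2 hr at RT then 16 hr at 37 C on a 48 hr fibroblast/mesothelial/ECM culture.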
With `CCOC(=O)N1CCc2c(sc3c2c(=O)n(CCc2ccccc2)c(=O)n3CC(=O)Nc2ccccc2C)C1`, the call was inactive.

For the molecule `CCCSc1nnc(NC(=O)c2cc(=O)c3ccccc3o2)s1`, the “activity change, negative = inhibition” value is inactive: -23.6%.

As for `COc1ccc(S(=O)(=O)N(CCc2ccccc2)CC(=O)Nc2cc(Cl)ccc2C)cc1`, the “activity change, negative = inhibition” value was inactive: -2.82%.

As to `COc1ccccc1C(=O)Nc1ccccc1OCc1cc(=O)n2cc(C)sc2n1`, the “activity change, negative = inhibition” value is inactive: -28.9%.

For `Cc1ccc(C)c(OCCCC(C)(C)C(=O)O)c1`, the “activity change, negative = inhibition” value is inactive: -24.4%.

As for `CCOc1cccc(C(=O)N(Cc2ccc(C(C)C)cc2)C2CCS(=O)(=O)C2)c1` (configuration not stated), the “activity change, negative = inhibition” value was inactive: -2.14%.

As for `Cc1ccc(-c2nn(CCC(=O)Nc3ccc(OC(F)(F)F)cc3)c(=O)c3ccccc23)cc1`, the molecule was called inactive.

In the case of `Cc1ccc(NC(=O)C2CCN(C(=O)c3sc4nc[nH]c(=O)c4c3C)CC2)cc1F`, the “activity change, negative = inhibition” value is inactive: -1.59%.

Consider `COc1cccc(NC(=O)Cn2c(=O)n(-c3ccc(C)cc3)c(=O)c3ccccc32)c1`, for which the “activity change, negative = inhibition” value was inactive: 1.41%.

Turning to `CCCC(=O)N1c2nc(-c3ccco3)nn2C2(CCCCC2)[C@@H]2CCCC[C@@H]21`, the call was inactive.

`CCCCCn1c(CCCNC(=O)c2ccccc2)nc2ccccc21`: the outcome was inactive.

Consider `O=C(Nc1ncc(Cc2ccc(F)cc2)s1)c1ccc2c(c1)CC(c1ccccc1)OC2=O` (configuration not stated), for which the “activity change, negative = inhibition” value was inactive: 0.71%.

As for `CC(C)Oc1ccc(C(=O)NCCc2csc(-c3cccc(F)c3)n2)cc1`, the “activity change, negative = inhibition” value was inactive: -2.3%.

Take `Cc1ccc(-c2noc(-c3ccccc3OCC(=O)Nc3ccccc3[N+](=O)[O-])n2)cc1`: the “activity change, negative = inhibition” value is inactive: 0.205%.

Regarding `Cc1ccccc1NC(=O)c1c(C)oc2ccc(O)c(CN(C)Cc3ccccc3)c12`, the “activity change, negative = inhibition” value was inactive: -11.3%.

In the case of `CCN1C(=O)C(Cc2nc3ccccc3c(=O)n2-c2cccc(C)c2)c2ccccc21` (configuration not stated), the “activity change, negative = inhibition” value is inactive: 0.182%.

As for `Cc1cccc(N(C)C(=O)Cn2cnc3nc4c(cc3c2=O)CCCC4)c1`, the “activity change, negative = inhibition” value is inactive: -4.65%.

As to `Cc1ccccc1NC(=O)CSc1nccn1C`, the molecule was called inactive.

As for `Cc1nnc(N2CCC(C(=O)NC3CCC(C)CC3)CC2)c2nn(-c3ccc(Cl)cc3)c(C)c12` (configuration not stated), the “activity change, negative = inhibition” value is inactive: 9.14%.

As for `Cc1nn(C)c2c1c(C(F)(F)F)cc(=O)n2CC(=O)Nc1ccc(F)cc1F`, the molecule was classed as inactive.

For `O=S(=O)(NCC(c1ccco1)S(=O)(=O)c1cccs1)c1ccccc1` (configuration not stated), the molecule was classed as inactive.

As for `Cc1ccc(OC(C)C(=O)N2CCN(CCc3ccccn3)CC2)cc1C` (configuration not stated), the call was inactive.

Take `COc1ccc(OC(=O)c2cn(-c3cccc(OC)c3)c(=O)c3ccccc23)cc1`: the “activity change, negative = inhibition” value was inactive: -9.56%.

In the case of `Cc1cc(F)ccc1NC(=O)C1CCCN(C(=O)c2cnn(-c3ccccc3)c2-n2cccc2)C1` (configuration not stated), the molecule was called inactive.

In the case of `CC(CCc1ccccc1)NC(=O)CSc1n[nH]c(-c2ccccc2Cl)n1` (configuration not stated), the “activity change, negative = inhibition” value is inactive: 9.25%.

For the molecule `COc1cccc(CNC(=O)CCc2c(C)nn(-c3ccc(N4CCCC4)nn3)c2C)c1`, the call was inactive.

Consider `Cc1cc(Cl)ccc1NC(=O)C1CCCN(c2nnc(C)c3c(C)n(-c4ccccc4)nc23)C1` (configuration not stated), for which the “activity change, negative = inhibition” value is inactive: 1.95%.

`COc1cccc(N2CC(NC(=O)c3cccs3)CC2=O)c1` (configuration not stated): the “activity change, negative = inhibition” value is inactive: 13%.

Turning to `Cc1cc(C)c(NC(=O)C(C)n2nc(C)c3sc4ccccc4c3c2=O)c(C)c1` (configuration not stated), the “activity change, negative = inhibition” value is inactive: 18.3%.

For the molecule `CCCc1nnc(NC(=O)CSc2nnc3c4ccccc4n(CC)c3n2)s1`, the “activity change, negative = inhibition” value is inactive: 0.549%.

Regarding `CCc1ccc(CNC(=O)c2ccc(Cn3c(=O)c4cccn4c4cccnc43)cc2)cc1`, the “activity change, negative = inhibition” value was inactive: -9.23%.

Take `Cc1nc2ccccc2n1CCc1nc2c3ccccc3nc(SCc3ccccc3F)n2n1`: the “activity change, negative = inhibition” value was inactive: -1.32%.

`Cc1cccc(OCC(=O)Nc2ccc3nc(SCc4ccccc4)sc3c2)c1`: the “activity change, negative = inhibition” value is inactive: 3.18%.

On to `CCOc1ccc(C(=O)N2CC(=O)Nc3ccc(F)cc3C2c2ccc(F)cc2)cc1` (configuration not stated), for which the “activity change, negative = inhibition” value was inactive: -3.28%.

Regarding `COc1ccc(N(CC(=O)N2CCN(c3cccc(Cl)c3)CC2)S(=O)(=O)c2c(C)noc2C)cc1`, the “activity change, negative = inhibition” value was inactive: 32.3%.

As to `Cc1ccc(OCCCC(=O)Nc2sc3c(c2C(N)=O)CCC(C)C3)cc1` (configuration not stated), the “activity change, negative = inhibition” value was inactive: 3.76%.

On to `CC(C)NC(=O)C1CCCN(S(=O)(=O)c2ccc3c(ccn3C)c2)C1` (configuration not stated), for which the “activity change, negative = inhibition” value was inactive: 4.89%.

Regarding `CCc1cccc(C)c1NC(=O)c1cc(CN2CCCC2)on1`, the “activity change, negative = inhibition” value is inactive: -12.3%.

`COCCn1c(C)cc(O)c(C(c2cccc(F)c2)N2CCN(c3ccccc3)CC2)c1=O` (configuration not stated): the “activity change, negative = inhibition” value is inactive: -3.45%.

In the case of `O=C(Nc1ccc2oc(-c3cccc4c(Br)cccc34)nc2c1)c1cccc(Cl)c1`, the molecule was classed as inactive.

Consider `CCc1nnc2c(Nc3cc(OC)c(Cl)cc3OC)nc3ccccc3n12`, for which the “activity change, negative = inhibition” value is inactive: 4.32%.

For `COc1ccc(-c2oc3ncn4nc(COc5ccc(Cl)cc5)nc4c3c2-c2ccc(OC)cc2)cc1`, the “activity change, negative = inhibition” value was inactive: 4.68%.

For the molecule `CCCN(c1ccccc1F)S(=O)(=O)c1cc(-c2cc(C)no2)ccc1C`, the outcome was inactive.

As to `Cc1ccc(OCC(=O)OCc2cc(=O)n3nc(C4CC4)sc3n2)cc1C`, the “activity change, negative = inhibition” value is inactive: 7.64%.

As to `Cc1cc(C)cc(-n2ccn3cnnc3c2=O)c1`, the “activity change, negative = inhibition” value is inactive: 23.4%.

For the molecule `CCC(C(=O)NCCc1ccc(OC)c(OC)c1)n1nc(C)c2sc3ccccc3c2c1=O` (configuration not stated), the “activity change, negative = inhibition” value is inactive: 4.74%.

As for `CC(C)(C)C1CCc2c(sc(NC(=O)c3cc(-c4ccc(F)cc4)on3)c2C#N)C1` (configuration not stated), the molecule was classed as inactive.
